Laboratory results from publication PMC4336329 (PLoS ONE, 2015).
Hit rate of the full screen: of about 310,000 compounds, about 2,200 (0.71%) showed an effect of 50% or more. The effect is printed as a negative number. This is one part of the list.

Biological target: human ether-à-go-go-related gene (hERG) potassium channel (human, UniProt Q12809)
Assay: primary screen, population patch clamp on CHO cells stably expressing hERG

human ether-à-go-go-related gene (hERG) potassium channel, sequence (Q12809 whole entry, looked up): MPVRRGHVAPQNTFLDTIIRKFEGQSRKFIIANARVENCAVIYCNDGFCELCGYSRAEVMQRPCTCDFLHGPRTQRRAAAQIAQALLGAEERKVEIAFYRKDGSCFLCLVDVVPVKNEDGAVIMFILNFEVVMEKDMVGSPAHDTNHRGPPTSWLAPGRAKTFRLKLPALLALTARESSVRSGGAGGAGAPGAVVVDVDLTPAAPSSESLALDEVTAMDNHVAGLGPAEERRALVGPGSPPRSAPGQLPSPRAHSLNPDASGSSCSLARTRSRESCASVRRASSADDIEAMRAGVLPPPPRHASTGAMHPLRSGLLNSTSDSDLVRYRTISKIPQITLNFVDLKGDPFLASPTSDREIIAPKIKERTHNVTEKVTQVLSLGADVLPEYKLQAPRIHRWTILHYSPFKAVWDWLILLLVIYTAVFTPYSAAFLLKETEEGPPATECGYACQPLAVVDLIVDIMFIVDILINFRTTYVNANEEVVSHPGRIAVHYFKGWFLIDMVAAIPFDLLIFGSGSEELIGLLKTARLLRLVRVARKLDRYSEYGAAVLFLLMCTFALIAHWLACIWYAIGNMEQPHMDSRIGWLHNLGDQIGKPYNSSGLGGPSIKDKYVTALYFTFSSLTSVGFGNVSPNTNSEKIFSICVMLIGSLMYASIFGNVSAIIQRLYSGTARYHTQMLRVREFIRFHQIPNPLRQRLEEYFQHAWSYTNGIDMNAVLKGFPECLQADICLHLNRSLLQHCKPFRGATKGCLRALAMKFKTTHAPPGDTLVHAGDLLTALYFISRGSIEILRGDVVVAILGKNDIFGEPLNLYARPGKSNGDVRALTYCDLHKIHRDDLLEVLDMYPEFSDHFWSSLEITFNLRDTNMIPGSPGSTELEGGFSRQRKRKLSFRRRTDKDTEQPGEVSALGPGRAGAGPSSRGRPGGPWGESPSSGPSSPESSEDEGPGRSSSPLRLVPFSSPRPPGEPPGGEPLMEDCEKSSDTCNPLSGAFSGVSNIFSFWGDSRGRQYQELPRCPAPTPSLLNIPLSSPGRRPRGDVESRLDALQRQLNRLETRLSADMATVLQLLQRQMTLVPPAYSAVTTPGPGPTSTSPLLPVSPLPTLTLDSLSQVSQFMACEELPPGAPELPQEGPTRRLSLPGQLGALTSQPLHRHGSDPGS

Compared with `CCOc1ccc(Cl)cc1CSc1ncn[nH]1`, `CCOc1ccc(CC(C(N)=O)C(N)=O)cc1CN(C)C` is higher in “hERG current change (%, negative = inhibition) at 1uM” value: 6.7% for the first, 10.9% for the second.

First: COc1cccc(CNc2ccc(Br)cn2)c1O
Second: COc1ccccc1CC(=O)NC(=O)c1ccccc1O
The “hERG current change (%, negative = inhibition) at 1uM” value of the first is lower: 6.11% for the first, 29.7% for the second.

Compared with `O=C(NCc1ccccc1Cl)C(=O)c1c[nH]c2ccccc12`, `O=C(NCc1ccccc1Cl)c1ccc(NC2=NC3CS(=O)(=O)CC3S2)cc1` (stereo not drawn) is lower in “hERG current change (%, negative = inhibition) at 1uM” value: 3.01% for the first, 1.4% for the second.

First: CC(=O)Nc1ccc(N(C(=O)c2ccco2)C(C(=O)NC2CCCC2)c2ccc(N(C)C)cc2)cc1 (stereo not drawn)
Second: CCN(CC)S(=O)(=O)c1ccc(NC(=O)CNC2CCCCC2)cc1.O=C(O)C(=O)O
The “hERG current change (%, negative = inhibition) at 1uM” value of the first is lower: 4.66% for the first, 12.2% for the second.

Going from `CCCCC(OC(=O)c1cc2occc2n1C)C(=O)NCC1CCCO1` (stereo not drawn) to `Cc1ccc(C)c(N(C(=O)c2snc(C(N)=O)c2N)C(C(=O)NCC2CCCO2)c2cccs2)c1` (stereo not drawn), the “hERG current change (%, negative = inhibition) at 1uM” value rises from -1.76% to 4.75%.

First: O=C(CSCc1ccc(F)cc1)Nc1ccc(N2CCOCC2)cc1N1CCOCC1
Second: O=C(Nc1ccc(CSc2ccccc2)cc1)c1ccc(CN2CCOCC2)cc1
The “hERG current change (%, negative = inhibition) at 1uM” value of the first is lower: -14.6% for the first, 7.08% for the second.

Going from `CS(=O)(=O)N(CC(=O)NCc1ccc(Cl)cc1)C1CCCCC1` to `O=C(CN(C(=O)c1csnn1)c1ccc(Cl)cc1)NC1CCCC1`, the “hERG current change (%, negative = inhibition) at 1uM” value rises from 1.26% to 11.2%.

First: COc1ccccc1N1CCN(CC(=O)Nc2ccc(S(=O)(=O)N3CCCCCC3)cc2)CC1
Second: COc1ccccc1N1CCN(C2CCN(C(=O)COc3ccccc3)CC2)CC1
The “hERG current change (%, negative = inhibition) at 1uM” value of the first is lower: -4.52% for the first, 0.692% for the second.

First: Nc1nc(NC(=O)/C=C/c2ccccc2)nn1-c1ccccc1
Second: N=C1C(c2ccccc2)=C(O)CN1NC(=O)c1ccccc1
The “hERG current change (%, negative = inhibition) at 1uM” value of the first is lower: 1.83% for the first, 10.8% for the second.

Going from `O=C(CSc1nc(-c2ccco2)cc(C(F)(F)F)n1)Nc1ccc(C(=O)N2CCOCC2)cc1` to `COc1ccc(-c2noc(-c3ccccc3C(=O)N3CCOCC3)n2)cc1`, the “hERG current change (%, negative = inhibition) at 1uM” value falls from -0.708% to -5.83%.

Compared with `CC(Cc1cccs1)NC(=S)Nc1ccc(Cl)c(Cl)c1` (stereo not drawn), `CC(NC(=O)Nc1cccc(Cl)c1)C(c1cccs1)N1CCCC1` (stereo not drawn) is lower in “hERG current change (%, negative = inhibition) at 1uM” value: 6.68% for the first, -2.04% for the second.

Going from `CCOC(=O)c1cccc(NC(=O)CCn2c(=O)oc3ccccc32)c1` to `CCOc1cccc(C(=O)Nc2ccc(NC(=O)c3cc4ccccc4o3)c(OC)c2)c1`, the “hERG current change (%, negative = inhibition) at 1uM” value rises from 2.04% to 18.5%.

First: CC(=O)c1cc(C#N)c(NCc2cc(-c3ccccc3)no2)nc1C
Second: N#Cc1cc(C(=O)c2cc(Cl)ccc2O)cn(-c2ccccc2)c1=O
The “hERG current change (%, negative = inhibition) at 1uM” value of the first is lower: 4.29% for the first, 6.09% for the second.

Going from `CC(C)c1ccc(NC2=CC(=O)CC(C)(C)C2)cc1` to `CNC(=S)NCC(O)c1ccc([N+](=O)[O-])cc1` (stereo not drawn), the “hERG current change (%, negative = inhibition) at 1uM” value falls from 13.2% to 5.44%.

First: Cc1ccc(C2C(=O)N(C3CCC(C)CC3)CC(=O)N2C2CCCC2)cc1 (stereo not drawn)
Second: O=c1cc([O-])n(C2CCCCCC2)c(=O)[nH]1.[NH4+]
The “hERG current change (%, negative = inhibition) at 1uM” value of the first is lower: -13.1% for the first, 11.6% for the second.

First: CCOC(=O)c1c(C)[nH]c(C)c1S(=O)(=O)N1CCN(c2ccc(F)cc2)CC1
Second: COc1ccc(N2CCN(Cc3nc4ccccc4[nH]3)CC2)cc1
The “hERG current change (%, negative = inhibition) at 1uM” value of the first is lower: -4.36% for the first, 11.1% for the second.

First: C[C@@]12C(=O)N(CC3CCCO3)CC(=O)N1[C@H]1c3ccccc3OC[C@@H]1[C@@H]2c1ccccc1 (stereo partly drawn)
Second: O=c1c2ccccc2nc(SCc2ccncc2)n1CC1CCCO1 (stereo not drawn)
The “hERG current change (%, negative = inhibition) at 1uM” value of the first is higher: 9.67% for the first, -17.8% for the second.

Going from `O=C(NC(NNc1ccc([N+](=O)[O-])cc1)(C(F)(F)F)C(F)(F)F)c1ccc(F)cc1` to `Cc1ccc(NC(=O)CC(=O)Nc2ccc(C)cc2)cc1`, the “hERG current change (%, negative = inhibition) at 1uM” value rises from 7.02% to 15.6%.

First: O=C(/C=C/c1ccccc1)OCc1cncs1
Second: NNC(=O)CN1C(=O)Nc2ccc(Br)cc2C1c1ccccc1 (stereo not drawn)
The “hERG current change (%, negative = inhibition) at 1uM” value of the first is higher: 12.6% for the first, 9.17% for the second.

Going from `CC1CN(S(=O)(=O)c2ccc(CN3C(=O)c4cccnc4C3=O)s2)c2ccccc2O1` (stereo not drawn) to `Cn1c(-c2ccccc2F)cc2onc(-c3ccccc3)c2c1=O`, the “hERG current change (%, negative = inhibition) at 1uM” value rises from 0.571% to 1.78%.

Going from `O=C(NN=C1CCCCCCC1)c1ccccn1` to `COC(=O)c1[nH]c2ccccc2c1NC(=O)CN1CCCCCC1`, the “hERG current change (%, negative = inhibition) at 1uM” value falls from 6.72% to -3.6%.

Going from `COc1ccc(OCCCC(=O)NCCc2ccc(OC)c(OC)c2)cc1` to `COCCn1c(SCC(=O)NCc2ccc(OC)c(OC)c2)nc2ccccc21`, the “hERG current change (%, negative = inhibition) at 1uM” value falls from 17.3% to 14.2%.

Going from `NC(=O)c1ccsc1NC(=O)COC(=O)c1c(F)cccc1Cl` to `COC(=O)c1c(NC(=O)CN(C)CC(=O)Nc2ccc(C)cc2)sc2c1CCC(C)C2` (stereo not drawn), the “hERG current change (%, negative = inhibition) at 1uM” value falls from 7.49% to -14.1%.

Compared with `CCOC(=O)N1CCN(C(=S)Nc2ccc(C)cc2C)CC1`, `CCOC(=O)N1CCN(Cc2oc(CO)cc(=O)c2O)CC1` is higher in “hERG current change (%, negative = inhibition) at 1uM” value: 0.56% for the first, 8.48% for the second.

Compared with `O=C(CSc1ccc(-c2ccco2)nn1)NCc1ccccc1`, `O=C(O)CCSc1ccc2ccccc2n1` is higher in “hERG current change (%, negative = inhibition) at 1uM” value: 2.16% for the first, 3.83% for the second.

Going from `Cc1ccc(C(=O)NCC2CCCN2S(=O)(=O)c2cccs2)cc1C` (stereo not drawn) to `Cc1nnc(NC(=O)C2CCCN(S(=O)(=O)c3ccccc3C(F)(F)F)C2)s1` (stereo not drawn), the “hERG current change (%, negative = inhibition) at 1uM” value falls from 16.9% to 8.48%.

Going from `COC(=O)c1ccc(CSc2nc(C)nc3c2c(=O)n(C)c(=O)n3C)o1` to `COC(=O)/C=C1/C(=O)N/C(=N\c2nc(C)cc(C)n2)N1c1ccc(OC)cc1`, the “hERG current change (%, negative = inhibition) at 1uM” value falls from 16% to 12.5%.

Going from `CC(C)CCn1c(SC(C)C(=O)NC2CC2)nc2ccccc2c1=O` (stereo not drawn) to `CC12CCC(=O)N1C(C(=O)O)Cc1c2[nH]c2ccccc12` (stereo not drawn), the “hERG current change (%, negative = inhibition) at 1uM” value falls from 15.1% to 10%.

Going from `CCn1cc(CN2CCCC(C(=O)Nc3ccc(-c4cscn4)cc3)C2)c(C)n1` (stereo not drawn) to `CCOc1ccc(-c2cc(C(=O)N3CCN(C)CC3)c3ccccc3n2)cc1`, the “hERG current change (%, negative = inhibition) at 1uM” value falls from 16.1% to -0.0034%.

Compared with `COc1ccc2c(c1)c(=O)oc1c(C)c(OC(C)C(=O)NCC3CCC(C(=O)O)CC3)ccc12` (stereo not drawn), `COc1ccc(OC)c(NC(=O)Cc2nn(C)c(=O)c3ccccc23)c1` is lower in “hERG current change (%, negative = inhibition) at 1uM” value: 17% for the first, 10.7% for the second.

First: O=C(NC(=S)NCC1COc2ccccc2O1)c1ccccc1 (stereo not drawn)
Second: O=C1CC(c2ccccc2)CN1S(=O)(=O)c1ccccc1 (stereo not drawn)
The “hERG current change (%, negative = inhibition) at 1uM” value of the first is higher: 10.2% for the first, 5.77% for the second.

Compared with `Cc1ccc(C(=O)N2C(=O)c3cccc(N)c3C2=O)o1`, `COc1ccc(NC(=O)c2cc(=O)c3ccccc3o2)cc1Cl` is higher in “hERG current change (%, negative = inhibition) at 1uM” value: 1.2% for the first, 20% for the second.

First: COC(=O)CCCC(=O)N1CCC(CCC(=O)NCc2ccc(F)cc2)CC1
Second: CCOCCCNC(=O)CNC(=S)N(Cc1ccccc1F)C1CCCCC1
The “hERG current change (%, negative = inhibition) at 1uM” value of the first is higher: 4% for the first, -6.79% for the second.

Going from `CCn1ncc([N+](=O)[O-])c1C(=O)Nc1nc2cccc(C)c2s1` to `CCC(=O)OCCNc1cc(Sc2nc3ccccc3s2)c2nonc2c1[N+](=O)[O-]`, the “hERG current change (%, negative = inhibition) at 1uM” value falls from 13.4% to 6.31%.

Going from `CC1(C(=O)O)CCC(C(=O)N2CCOCC2)C1(C)C` (stereo not drawn) to `Cc1ccc2nsnc2c1S(=O)(=O)N1CCN(C(=O)C2CCCO2)CC1` (stereo not drawn), the “hERG current change (%, negative = inhibition) at 1uM” value falls from 7.78% to 0.95%.

Compared with `COc1cccc(CC2(CO)CCN(Cc3ccc4cccc(F)c4n3)CC2)c1`, `COc1ccc(/C=N/n2c(-c3ccccc3)n[nH]c2=S)cc1` is lower in “hERG current change (%, negative = inhibition) at 1uM” value: -4.61% for the first, -4.75% for the second.

First: CCOC(=O)c1nn(-c2ccc(C)cc2)c(=O)cc1OCC(=O)Nc1ccc(OC)cc1
Second: Cc1cc(C)c(OCC(=O)Nc2cccc(NC(=O)c3ccco3)c2)c(Br)c1
The “hERG current change (%, negative = inhibition) at 1uM” value of the first is higher: 13.5% for the first, 11.7% for the second.

First: CCCCCCCCCCCCC(=O)CCCCC(=O)O
Second: COC(=O)CSCC(=O)Nc1cc2c(cc1C(C)=O)OCO2
The “hERG current change (%, negative = inhibition) at 1uM” value of the first is lower: -6.15% for the first, 9.01% for the second.

Compared with `CC(C)(C)OC(=O)N/N=C\c1ccc([N+](=O)[O-])s1`, `CC(C)(C)OC(=O)NCCc1nnc(SCC(=O)Nc2cccc(Cl)c2)o1` is higher in “hERG current change (%, negative = inhibition) at 1uM” value: 9.29% for the first, 10.3% for the second.

First: CCc1nnc(NC(=O)c2cccs2)s1
Second: COc1ccc2[nH]c(=O)c(COC(=O)c3cccs3)cc2c1
The “hERG current change (%, negative = inhibition) at 1uM” value of the first is higher: 14.2% for the first, -1.61% for the second.

Compared with `COc1cc(/C=C/C(=O)O)cc(S(=O)(=O)NCc2ccco2)c1OC`, `C/C=C\C=C/C(=O)Nc1cccc(C2=NOC3(C2)C[C@@H](C(N)=O)N(C(=O)C2(C)CC2)C3)c1` (stereo partly drawn) is lower in “hERG current change (%, negative = inhibition) at 1uM” value: 10.6% for the first, 8.83% for the second.

First: O=C1C(=O)c2ccccc2C([O-])=C1[n+]1ccccc1
Second: Cc1ccc(N(CC(O)CN2CCCCC2)S(=O)(=O)c2ccccc2)cc1 (stereo not drawn)
The “hERG current change (%, negative = inhibition) at 1uM” value of the first is higher: -2.05% for the first, -68.7% for the second.

First: S=c1[nH]c2ccccc2n2c(=S)[nH]nc12
Second: C=CCN(C(=O)CN1CCOCC1)c1nc(C)c(-c2ccccc2)s1
The “hERG current change (%, negative = inhibition) at 1uM” value of the first is higher: 16.3% for the first, 10.3% for the second.

First: COc1cc2c3c(c1)c(N=NC(N)=S)c(O)n3C(C)(C)C=C2C
Second: COc1cccc(-c2cc(C(F)(F)F)c3c(N)c(C#N)sc3n2)c1
The “hERG current change (%, negative = inhibition) at 1uM” value of the first is higher: 18.4% for the first, 11.3% for the second.

Compared with `CCN(C(=O)C1CC1)C1CCS(=O)(=O)C1` (stereo not drawn), `Cc1cnc(C(=O)OCC(=O)c2ccc[nH]2)cn1` is higher in “hERG current change (%, negative = inhibition) at 1uM” value: 9.67% for the first, 21.4% for the second.
